# Source: PubChem BioAssay AID1345082 (National Center for Advancing Translational Sciences (NCATS), 2018)
# “And” between values parts separate entries of the source, which are not always exact repeats. Equal values may be shown once. About 4,000 (4.3%) of roughly 94,000 compounds were called active. Inconclusive results, whose numbers are uncertain, are shown with a selection of clear calls. Calls come from the whole dose curve; as a rule, active = well fitted inhibition curve with a large enough effect; inconclusive = small, poorly fitted or top-dose-only effect; inactive = no such curve, though single readings can be large or run the other way. Potencies beside an inconclusive call are fits to weak or partial responses and may not hold up.
# Assay: Cytotoxic Profiling in NIH 3T3 Cell Line of Diverse Libraries Using Quantitative High-Throughput Screening; note: nearly all actives have a fitted effect of over 55% in size
# Details: NIH 3T3 viability, CellTiter-Glo ATP luminescence, 48-72 h; activity change, negative = cytotoxicity: at 96.7 µM (top of the series) unless noted; series mostly up to 96.7 µM
# Outline: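 Luminescent ATP readout (CellTiter-Glo, 10 min RT) after 48 or 72 hr compound exposure of NIH 3T3 cells seeded at 400 cells/well in 1536-well format; quantitative HTS.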
# % is set by controls: 0 for no effect and ±100 for the full control effect; potency is the fitted concentration of half-maximal effect; tags give direction and shape of the fitted curve.
Compound,Potency,"activity change, negative = cytotoxicity",outcome
CN(C)c1ccc(CN2CC[C@H](c3nc4ccccc4n3C)C2)cc1,"inconclusive: 89.1 µM [inhibitor, partial curve]",,
COc1cccc(CN2Cc3cc(NC(=O)Cc4ccccc4)ccc3OCC2=O)c1,"inconclusive: 44.7 µM [inhibitor, partial curve, poor fit]",,
Cn1nc(CN2CCOCC2)c2c1CCN(S(=O)(=O)c1ccccc1)C2,,inactive: -25.7%,
CCCCOCCCNC(=O)c1c(C)noc1-c1cc(OC)cc(OC)c1,"inconclusive: 44.7 µM [inhibitor, partial curve, poor fit]",,
COc1ccc(Nc2ccnc(N3CCC(N[S+](=O)([O-])c4ccc(C)cc4)CC3)n2)cc1,active: 25.1 µM,,
CC(=O)Nc1ccc(-c2c(-c3ccccc3)ncn2Cc2ccnc(C)c2)cc1,"inconclusive: 79.4 µM [inhibitor, partial curve, poor fit]",,
CC(=O)Nc1ccc2c(c1)nc1n2[C@@H](CNC(=O)NC(C)C)COC1,,inactive: 3.48% [at 138 µM],
CC(=O)NC1(C)CCN(Cc2cccc(-c3cccc4ncccc34)c2)C1 (stereo not given),,inactive: -27.6% [at 138 µM],
COCCOCC(=O)N1CCC2(CC1)CC(N(C(=O)c1ccccc1)C1CC1)CCO2 (stereo not given),,inactive: -17%,
CC(C)N1C[C@@H]2C[C@H]1C(=O)N(Cc1ccccc1)c1ccccc1O2,active: 50.1 µM,,
CC(C)c1ccc(CC(=O)N2CCCc3ncc(C(=O)Nc4ccccc4)cc32)cc1,active: 28.2 µM,,
O=C(NCc1ccccc1Cl)c1ccc2nnc(-c3ccc(OC(F)(F)F)cc3)n2c1,"inconclusive: 50.1 µM [inhibitor, partial curve, poor fit]",,
CN(C)c1cc(N2CCCC(NC(=O)c3ccco3)C2)ncn1 (stereo not given),,inactive: -17.3%,
N#Cc1cccc(CN2CC[C@H]3C(=O)NCCCCCCN(Cc4ccncc4)[C@@H]3C2)c1,,inactive: -12.2%,
O=[S+]1([O-])NCC2(CCCN(Cc3cccc4ccccc34)C2)Nc2ccccc21 (stereo not given),"inconclusive: 22.4 µM [inhibitor, partial curve]",,
COCc1ccc2c(c1)c(OC(C)(C)C(=O)N1CCOCC1)nn2Cc1ccccc1,"inconclusive: 11.2 µM [inhibitor, full curve, poor fit]",,
COC(=O)c1cccc2nc([C@H]3CCN(Cc4ccccc4)C3)oc12,"inconclusive: 100 µM [inhibitor, partial curve, poor fit]",,
COc1ccccc1-c1ccc(CN2CCCCC2C(=O)NC2CCCC2)cc1 (stereo not given),"inconclusive: 39.8 µM [inhibitor, partial curve, poor fit] and inconclusive: 44.7 µM [inhibitor, partial curve, poor fit]",,
Cc1[nH]nc2c1C(c1cccc(Cl)c1)C(C#N)=C(N)O2 (stereo not given),"inconclusive: 70.8 µM [inhibitor, single point]",,
COc1cccc(-c2ccccc2C=O)c1,"inconclusive: 35.5 µM [inhibitor, partial curve, poor fit]",,
O=C(NCCc1ccccc1)C1Cn2cccc2C(=O)N1Cc1cccnc1 (stereo not given),,inactive: -24%,
COc1cccc(S(=O)(=O)N2CC(F)(F)C[C@H]2c2nnc(C)o2)c1,"inconclusive: 79.4 µM [inhibitor, partial curve, poor fit]",,

Compound,Potency,"activity change, negative = cytotoxicity",outcome
Cc1ncccc1-c1nc2cc(C(=O)NCC(C)C)ccc2o1,"inconclusive: 50.1 µM [inhibitor, partial curve, poor fit]",,
O=C(NC1CCCN(c2ccc3nnc(-c4ccccc4)n3n2)C1)c1ccccc1F (stereo not given),"inconclusive: 22.4 µM [inhibitor, full curve]",,
CCOc1ccccc1CNC(=O)c1cccc2c1CCN2C(=O)CC,,inactive: -0.87%,
C[C@@H]1CN(Cc2nc3c(n2Cc2ccccc2)C(=O)N(CC2CC2)CCN3)C[C@H](C)O1,"inconclusive: 56.2 µM [inhibitor, partial curve, poor fit]",,
COc1ccc(CN2CCN3C(=O)N(Cc4ccc(C)cc4)C[C@H]3C2)cn1,,inactive: -14.9% [at 138 µM],
Cc1ccc(C(=O)N2CCCC2C(=O)N2CCC(c3nc4ccncc4[nH]3)C2)cc1 (stereo not given),,inactive: -7.56%,
COc1ccc(C(=O)N2CCC(N3CC4CC(C3)[C@H]3CCCC(=O)N3C4)CC2)c(OC)c1 (stereo not given in full),,,inactive
CN(C)[S+](=O)([O-])c1ccc2c(c1)OCCN(Cc1ccc(C(F)(F)F)cc1)C2,active: 44.7 µM,,
COc1cc(CN2CCCCC23Cc2ccccc2CNC3=O)ccc1F (stereo not given),"inconclusive: 70.8 µM [inhibitor, single point]",,
CS(=O)(=O)N1CCOc2ccc(CCC(=O)NCc3ccccn3)cc2C1,,inactive: -23.5%,
C[C@H]1[C@@H]2[C@@H](O)C([C@H](C)C(=O)NCc3cccs3)CC[C@@]2(C)CC[C@@H]1NC(=O)COc1ccccc1 (stereo not given in full),"inconclusive: 5.62 µM [inhibitor, partial curve, poor fit]",,
CCOc1cc(=O)n2c(c1C(=O)Nc1ccc(F)c(F)c1)CCCC2,,,inactive
CCN(CC)Cc1cnc2c(C(=O)NC(C3CC3)C3CC3)cnn2c1,,inactive: -18.3%,
COc1ccccc1Nc1ccnc(N2CCCC(C(=O)NCCSC)C2)n1 (stereo not given),"inconclusive: 44.7 µM [inhibitor, partial curve]",,
COC[C@@H]1CN(S(=O)(=O)c2cc(F)cc(F)c2)C[C@H]1C(N)=O,,inactive: -1.33%,
COc1ccc(-c2cc(N3CCCC(NC(=O)c4cccc(F)c4)C3)n[nH]2)cc1 (stereo not given),"inconclusive: 35.5 µM [inhibitor, partial curve, poor fit]",,
Cc1ccc(CNC(=O)Nc2cccc(-c3ccc(N4CCOCC4)nn3)c2)cc1,"inconclusive: 44.7 µM [inhibitor, partial curve, poor fit]",,
Cc1ccccc1CC(=O)N1CCCN(c2cc(-c3ccc(Cl)cc3)[nH]n2)CC1,"inconclusive: 44.7 µM [inhibitor, partial curve, poor fit]",,
CC(C)N(Cc1cccc(N2CCN(C(=O)c3c(Cl)cccc3Cl)CC2)c1F)[S+](C)(=O)[O-],"inconclusive: 50.1 µM [inhibitor, partial curve, poor fit]",,
COCCNC(=O)[C@@H](C)C1CC[C@@]2(C)CC[C@H](NC(=O)c3ccc(C#N)cc3)[C@@H](C)[C@@H]2[C@H]1O (stereo not given in full),,inactive: -14.7%,
C#CCNC(=O)C[C@@H]1c2nc(NC(=O)c3ccc(C(C)(C)C)cc3)sc2C[C@@H]2[C@](C)(CO)[C@H](O)CC[C@]21C,active: 31.6 µM,,
CN1CCN(c2cc(=O)c3ccnc(N4CCN(c5ccccn5)CC4)c3o2)CC1,"inconclusive: 3.55 µM [inhibitor, full curve, poor fit]",,

Compound,Potency,"activity change, negative = cytotoxicity",outcome
CCC1(N2CCN(C(=O)Nc3cccc(F)c3C)CC2)CCN(C(=O)C(C)C)C1 (stereo not given),,inactive: -23.5%,
COCCn1c(=O)c(C(=O)NCc2ccc(C(F)(F)F)cc2)nc2cccnc21,"inconclusive: 44.7 µM [inhibitor, partial curve, poor fit]",,
CN1C(=O)CC[C@]2(C(=O)NCc3cccc(C(F)(F)F)c3)CCCC[C@@H]12,,inactive: -13%,
COCC1CN(C(=O)Cc2ccc(OC)cc2)CC12CCNCC2 (stereo not given),,inactive: 1.49%,
Cc1ccccc1-c1cc(C(=O)NCc2cnn(C)c2)c2c(c1)N(C)CCO2,"inconclusive: 79.4 µM [inhibitor, partial curve]",,
COc1ccc(C(=O)Nc2nc3c(s2)C[C@@H]2[C@](C)(CO)[C@H](O)CC[C@@]2(C)[C@@H]3CC(=O)N2CCC(C)CC2)cc1,active: 17.8 µM,,
CC1=C[C@@H](CN2CCN(c3cnccn3)CC2)[C@H](C(C)C)C[C@H]1Cc1nnc(-c2ccccc2)o1,"inconclusive: 56.2 µM [inhibitor, partial curve, poor fit]",,
COc1ccc(CCC(=O)NCc2nnc3c(-c4nc(C(C)C)no4)cccn23)cc1,,inactive: 3.92%,
Cc1ccc(S(=O)(=O)N[C@H]2C[C@@H](c3nc(C(C)C)no3)N(C)C2)cc1,,inactive: -18% [at 138 µM],
Cc1cc(C)c(CNC(=O)c2nc(-c3cccnc3)cc3c2ccn3C(C)C)c(=O)[nH]1,"inconclusive: 44.7 µM [inhibitor, partial curve, poor fit]",,
CC(C)C(=O)N1Cc2ccccc2CC2(CCN(Cc3ccncc3)C2)C1 (stereo not given),,inactive: -20.2%,
CCn1ccc(C(=O)N2CC(N(C)Cc3cccnc3)C2)n1,,inactive: -14.8%,
O=C([C@@H]1C[C@H](c2ccc(F)cc2)N(Cc2ccccc2Cl)C1)N1CCOCC1,active: 89.1 µM,,
CNC(=O)c1cc(C2CC2)nc2c1c(C1CCCN(C(=O)C3CCCC3)C1)nn2C (stereo not given),"inconclusive: 70.8 µM [inhibitor, single point]",,
CNC(=O)c1cccc(-c2cnc(Nc3ccc(Cl)cn3)c3c2CCO3)c1,"inconclusive: 56.2 µM [inhibitor, partial curve, poor fit]",,
Cc1ccccc1S(=O)(=O)N1CCCC2(C1)Nc1cccnc1NC2=NC1CCCC1 (stereo not given),"inconclusive: 44.7 µM [inhibitor, partial curve, poor fit]",,
COc1ccccc1-c1cc(C(=O)NCc2ccccc2F)nn2cnnc12,"inconclusive: 15.8 µM [inhibitor, full curve]",,
COc1ccc(C2(C(=O)NCCC3CCN(C(=O)Nc4ccc(C)cc4)CC3)CC2)cc1,"inconclusive: 44.7 µM [inhibitor, partial curve, poor fit]",,
Cc1noc2c(N3CC[S+](=O)([O-])CC3)cc(-c3cccc(C(F)(F)F)c3)nc12,"inconclusive: 31.6 µM [inhibitor, partial curve, poor fit]",,
Cn1cccc1CN1CCC2(COc3ccccc3C(=O)N2)C1 (stereo not given),"inconclusive: 44.7 µM [inhibitor, partial curve, poor fit]",,
C[C@@H]1CN(c2ccc(C(=O)N3CCC(N4CCOCC4)CC3)cn2)C[C@H](C)O1,,inactive: -9.02%,
